This is one part of the list.

Here are results for 42 sequences from publication PMC7819943, “Rice protein-binding microarrays: a tool to detect cis-acting elements near promoter regions in rice”.

In the test the target is T1, OsWOX13 (Oryza sativa, UniProt Q5QMM3 1-267).
T1 sequence: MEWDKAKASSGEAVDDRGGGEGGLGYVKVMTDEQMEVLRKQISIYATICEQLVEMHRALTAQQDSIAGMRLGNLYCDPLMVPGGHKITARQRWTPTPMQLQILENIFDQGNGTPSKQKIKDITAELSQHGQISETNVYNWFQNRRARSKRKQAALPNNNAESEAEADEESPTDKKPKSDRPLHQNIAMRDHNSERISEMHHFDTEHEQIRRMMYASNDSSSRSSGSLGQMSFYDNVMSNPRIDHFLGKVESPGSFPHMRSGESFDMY
Nature of the test: protein-binding microarray (RPBM); PBS, 2% BSA, 51.3 ng/ul salmon testes DNA, 50 uM zinc acetate, 200 nM TF, 25 C, 1 h; high values mean tight binding. To be noted: protein: recombinant; tags: N-terminal polyhistidine and DsRed monomer fusion (pET32a); label: CyDye5-dUTP incorporated in the synthesized complementary strand; 3' TTTTT single-stranded linker to array surface; dsDNA, one strand shown. An outline of the steps: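 Transcription factors were each fused at the N-terminus to a polyhistidine tag plus DsRed and expressed in E. coli BL21-CodonPlus before Ni–NTA purification. Binding to a double-stranded custom Agilent array was carried out with 200 nM protein at 25 °C for 1 h in PBS, 2% BSA, salmon testes DNA and 50 µM zinc acetate. The binding signal is per-feature fluorescence intensity, in arbitrary units, on an Axon 4000B scanner.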
Consider “CATAACAGCAATCTCAAGCAGGAGTTCCATTGGATTACCTCGGAGTCACCTAGTGCAG”, for which the binding signal was 3660 fluorescence intensity (a.u.). With “TAAGACTTAAATAAATAGATAAATTAAATATTTGATTAGACGGAGTCACCTAGTGCAG” the figure was 10600 fluorescence intensity (a.u.); with “GTAAAATTACTCTCAAACTAATTGCATAACGAACTCTACACGGAGTCACCTAGTGCAG”, 20000 fluorescence intensity (a.u.). “AAGAAAATTATCTTGAATCAACATTTATACGATCCATTGACGGAGTCACCTAGTGCAG”: the binding signal was 5400 fluorescence intensity (a.u.). On to “AGATAGCCAATTGATTATACCATGATACCCTTAGGGTTCCCGGAGTCACCTAGTGCAG”, for which the binding signal was 12000 fluorescence intensity (a.u.). For the sequence “TTAAACTAAATCAGGTTGCTCAAGAGGTGATAAGTTTGGTCGGAGTCACCTAGTGCAG”, the binding signal was 3490 fluorescence intensity (a.u.). On to “TTGTATTGCTAATAAATTGACCAGCTCATGTAGAATACGTCGGAGTCACCTAGTGCAG”, for which the binding signal is 14000 fluorescence intensity (a.u.).

Take “TCAGTGATAGGCGAATTTTCCAGGATTTAACGGCGTTGTGCGGAGTCACCTAGTGCAG”: the binding signal is 9140 fluorescence intensity (a.u.). With “ACACTGTAACTATAATAATTACATTGTTACTTATATGTAACGGAGTCACCTAGTGCAG” the figure was 4460 fluorescence intensity (a.u.); with “GACCAACGGTGATTATTAACATGATCTATATCTATCTATCCGGAGTCACCTAGTGCAG”, 5820 fluorescence intensity (a.u.); with “AGACTAATGATGTTACTAATCTGCATCTAATTACGTGATACGGAGTCACCTAGTGCAG”, 11700 fluorescence intensity (a.u.). On to “CATATGATTTATAAGCTGGTGGATTTCATGTCTTAAGTTTCGGAGTCACCTAGTGCAG”, for which the binding signal was 18000 fluorescence intensity (a.u.). Regarding “GAACTGATCAATTATTAGTTGAGCTGAGCTGAGCTTATAACGGAGTCACCTAGTGCAG”, the binding signal was 6130 fluorescence intensity (a.u.). For the sequence “CAAATTAATTAGTTCATCAAATCTACCATTGAATATATATCGGAGTCACCTAGTGCAG”, the binding signal is 25400 fluorescence intensity (a.u.). The value for “CCTAATAATTTGGAAAGAGCCGGCTTGAATGGGGTGGATTCGGAGTCACCTAGTGCAG” was 5400 fluorescence intensity (a.u.).

With “AGTTGATGAGAATTCTGTCAAACCGGAGGGTGTGAAGTGACGGAGTCACCTAGTGCAG”, the binding signal was 4080 fluorescence intensity (a.u.). For “GTAATAATTTAATGGAGAAGGGGTCATAGTTAATTGCCTACGGAGTCACCTAGTGCAG”, the binding signal was 15800 fluorescence intensity (a.u.). Turning to “GTGGATTGATTCTCGGTCTCTTATTGTCCCTATCACGAATCGGAGTCACCTAGTGCAG”, the binding signal is 38700 fluorescence intensity (a.u.).

Turning to “TTGATTAATATTATGTGTACACAAAGTTGTCACCATCCATCGGAGTCACCTAGTGCAG”, the binding signal is 18700 fluorescence intensity (a.u.). Consider “TGTCAGTTATCTCGTTGGAATGATATATCGTTTTGTACTACGGAGTCACCTAGTGCAG”, for which the binding signal is 3520 fluorescence intensity (a.u.). On to “GTTGTGATTGTCCAATGCAACATGATGAAGAGGGGAATAACGGAGTCACCTAGTGCAG”, for which the binding signal was 8900 fluorescence intensity (a.u.). With “TAATGATTAAGACTGAAAAGTTTATAAGTTAGAGCTATATCGGAGTCACCTAGTGCAG” the figure was 16300 fluorescence intensity (a.u.); with “CTGTAGGACTAAATCAATCTAGCAAATGAATGGTGGCACACGGAGTCACCTAGTGCAG”, 4130 fluorescence intensity (a.u.); with “CCTGATAAACAAACACACATACATTGGCACATGGCATTTGCGGAGTCACCTAGTGCAG”, 7870 fluorescence intensity (a.u.). The value for “ACAATTTACTCATTTATTTATTTATTTATTTATGTATGTACGGAGTCACCTAGTGCAG” was 5980 fluorescence intensity (a.u.). Take “ATCAATCAATAACTCTCAAATGCCTGGTTTGTAAAACAAACGGAGTCACCTAGTGCAG”: the binding signal is 4660 fluorescence intensity (a.u.). The value for “ACTATTCTGTTAAGTTGATTGAGAATGGTAAATTCCATTTCGGAGTCACCTAGTGCAG” was 15600 fluorescence intensity (a.u.); that for “TAGATTATCAGTTTTGCATTCAGATTATCAGTTTTGCCAACGGAGTCACCTAGTGCAG” was 6140 fluorescence intensity (a.u.); that for “ATCAATCACTACTGCATATTACTATAATCTCCTCTATACTCGGAGTCACCTAGTGCAG” was 5200 fluorescence intensity (a.u.). As to “GATTAAACCATTAACATATTTTAACATATTTGACCAACACCGGAGTCACCTAGTGCAG”, the binding signal was 3250 fluorescence intensity (a.u.). With “TTGAGATTGAGAAACTCGTGAGCTCCATCCGCAACCGCAACGGAGTCACCTAGTGCAG”, the binding signal was 7600 fluorescence intensity (a.u.). Turning to “TTAATGCATAATTAACTACTCTATCCGTCCCAGAATGTAACGGAGTCACCTAGTGCAG”, the binding signal is 15200 fluorescence intensity (a.u.). The value for “CAACACTTAATTATTTGCAATTAATCTAATTGCATATATACGGAGTCACCTAGTGCAG” was 28200 fluorescence intensity (a.u.). With “ATGACATGGATTCAATTAACCCTATGTTATTACCTTGACGCGGAGTCACCTAGTGCAG”, the binding signal was 13000 fluorescence intensity (a.u.).

As to “AGATTAATTAGTCTTAATAAATTCGTCTCGCGGTTTACTGCGGAGTCACCTAGTGCAG”, the binding signal was 34200 fluorescence intensity (a.u.).

As for “TTTTCAATTATTATATTAATTATAATAATAATCCCCGCAACGGAGTCACCTAGTGCAG”, the binding signal was 42500 fluorescence intensity (a.u.). With “GTGTATAATCTGATCTTCTGATGAGCATGATTCGGGGTCTCGGAGTCACCTAGTGCAG” the figure was 3440 fluorescence intensity (a.u.); with “TACAAATGTAATTTTAGTTATAAGGCACTGTAATTTTAGTCGGAGTCACCTAGTGCAG”, 3910 fluorescence intensity (a.u.). With “CTCAATGATATAATTATGGTGCAAATAATGCCTATCAACGCGGAGTCACCTAGTGCAG” the figure was 23200 fluorescence intensity (a.u.). “GCACGATGATTTTAGTGGCTTTGTTGGCGCGAGTTGGGTGCGGAGTCACCTAGTGCAG”: the binding signal was 3450 fluorescence intensity (a.u.). With “ACTGCAATCAGCCGAAGTTTTCTGGCCCAATCTGTCGGCCCGGAGTCACCTAGTGCAG” the figure was 3970 fluorescence intensity (a.u.). For the sequence “ATATGATTATTAATATTTTCTCCGTATTTTAATATATGACCGGAGTCACCTAGTGCAG”, the binding signal was 27400 fluorescence intensity (a.u.).
